Assay results from the supplement of paper PMC12217912.
This is one part of the list. The full chains were built here from the parent and the listed change. Values near 0.05 are background.

B1: TEV protease; numbered along this chain (parent)
chain: MGESLFKGPRDYNPISSSICHLTNESDGHTTSLYGIGFGPFIITNKHLFRRNNGTLVVQSLHGVFKVKDTTTLQQHLVDGRDMIIIRMPKDFPPFPQKLKFREPQREERICLVTTNFQTKSMSSMVSDTSCTFPSGDGIFWKHWIQTKDGQCGSPLVSTRDGFIVGIHSASNFTNTNNYFTSVPKNFMELLTNQEAQQWVSGWRLNADSVLWGGHKVFMVKPEEPFQPVKEATQL

Variants of: B1
Test: raw area under fraction-flipped curve 0-4 h after induction (AUC4h, not background-subtracted), DNA-recorder readout of cleavage of the substrate (dimensionless); higher = more cleavage of the substrate by the protease variant
Conditions: temperature: 34 °C; time window: 0-4 h after rhamnose induction
Method: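 In vivo DNA recorder in E. coli TOP10(DE3) ΔrhaA at 34 °C. Each TEVp single-site mutant (parent TEVp 0) is paired with a single-site variant of the 7-mer TEVs (canonical ENLYFQ|S). The substrate sits between flexible linkers in a Bxb1-sfGFP-TEVs-SsrA fusion, so cleavage stabilises Bxb1 and speeds flipping of a recombination array, read by NGS. The value is the raw area under the fraction-flipped curve over 0-4 h after rhamnose induction (AUC4h), with ≥20 reads per time point. It is not background-subtracted; inactive controls average about 0.047.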
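Further: Bxb1 expression induced with 0.2% (w/v) L-rhamnose at OD600 near 0.5, cultures sampled hourly, flipped fraction per protease–substrate barcode pair counted by paired-end Illumina sequencing.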

Row | Variant | area with substrate ENLYFAS | area with substrate ENLYFCS | area with substrate ENLYFDS | area with substrate ENLYFFS | area with substrate ENLYFGS | area with substrate ENLYFHS | area with substrate ENLYFIS | area with substrate ENLYFMS | area with substrate ENLYFNS | area with substrate ENLYFPS | area with substrate ENLYFTS | area with substrate ENLYFVS | area with substrate ENLYFYS | area with substrate ENLYFES | area with substrate ENLYFKS | area with substrate ENLYFRS | area with substrate ENLYFSS | area with substrate ENLYFWS | area with substrate ENLYFLS
1 | MGESLFKGPRDYNPISSSICHLTNESDGHTTSLYGIGFGPFIIDNKHLFRRNNGTLVVQSLHGVFKVKDTTTLQQHLVDGRDMIIIRMPKDFPPFPQKLKFREPQREERICLVTTNFQTKSMSSMVSDTSCTFPSGDGIFWKHWIQTKDGQCGSPLVSTRDGFIVGIHSASNFTNTNNYFTSVPKNFMELLTNQEAQQWVSGWRLNADSVLWGGHKVFMVKPEEPFQPVKEATQL [T44D] | 0.0508 | 0.0597 | 0.0383 | 0.0466 | 0.0496 | 0.03 | 0.0359 | 0.046 | 0.05 | 0.0441 | 0.0437 | 0.0297 | 0.0482 | – | – | – | – | – | –
2 | MGESLFKGPRDYNPISSSICHLTNESDGHTTSLYGIGFGPFIIWNKHLFRRNNGTLVVQSLHGVFKVKDTTTLQQHLVDGRDMIIIRMPKDFPPFPQKLKFREPQREERICLVTTNFQTKSMSSMVSDTSCTFPSGDGIFWKHWIQTKDGQCGSPLVSTRDGFIVGIHSASNFTNTNNYFTSVPKNFMELLTNQEAQQWVSGWRLNADSVLWGGHKVFMVKPEEPFQPVKEATQL [T44W] | 0.0397 | 0.052 | 0.0444 | 0.0688 | – | 0.0478 | 0.0367 | 0.0489 | 0.0633 | 0.0482 | 0.051 | 0.0497 | – | 0.0594 | 0.0525 | 0.0431 | 0.0502 | 0.0386 | –
3 | MGESLFKGPRDYNPISSSICHLTNESDGHTTSLYGIGFGPFIITIKHLFRRNNGTLVVQSLHGVFKVKDTTTLQQHLVDGRDMIIIRMPKDFPPFPQKLKFREPQREERICLVTTNFQTKSMSSMVSDTSCTFPSGDGIFWKHWIQTKDGQCGSPLVSTRDGFIVGIHSASNFTNTNNYFTSVPKNFMELLTNQEAQQWVSGWRLNADSVLWGGHKVFMVKPEEPFQPVKEATQL [N45I] | 0.0469 | – | – | – | – | – | 0.0597 | 0.0568 | 0.0596 | 0.0509 | 0.0647 | 0.0587 | 0.0614 | 0.0519 | 0.0827 | 0.0397 | – | – | 0.0652
4 | MGESLFKGPRDYNPISSSICHLTNESDGHTTSLYGIGFGPFIITVKHLFRRNNGTLVVQSLHGVFKVKDTTTLQQHLVDGRDMIIIRMPKDFPPFPQKLKFREPQREERICLVTTNFQTKSMSSMVSDTSCTFPSGDGIFWKHWIQTKDGQCGSPLVSTRDGFIVGIHSASNFTNTNNYFTSVPKNFMELLTNQEAQQWVSGWRLNADSVLWGGHKVFMVKPEEPFQPVKEATQL [N45V] | 0.0506 | 0.0675 | – | 0.0633 | 0.0621 | 0.0674 | 0.0561 | 0.0455 | 0.0627 | 0.0657 | 0.0673 | 0.0694 | 0.0659 | 0.0511 | 0.0635 | 0.0598 | 0.0511 | 0.0652 | 0.0589
